Data on 73 molecules can be found in PubChem BioAssay AID1240 (Sanford-Burnham Center for Chemical Genomics, 2008).

Among all 50,000 compounds or so, about 800 (1.6%) showed an effect of 50% or more. This is one part of the list.

The target in the experiment is Bcl-2-like protein 10 (Homo sapiens) (UniProt Q9HD36). Briefly: Phenotype converters, Bcl-B/TR3 peptide binding displacement, primary biochemical FP (AID 1240).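 Further: 0% = Bcl-B with tracer peptide and DMSO and 100% = tracer peptide lacking Bcl-B.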 Conditions: GST-Bcl-B / FITC-TR3 peptide fluorescence polarization; stronger effect = higher value; compound at 3.75 mg/L.
Chain of UniProt Q9HD36 (Q9HD36 whole entry, looked up): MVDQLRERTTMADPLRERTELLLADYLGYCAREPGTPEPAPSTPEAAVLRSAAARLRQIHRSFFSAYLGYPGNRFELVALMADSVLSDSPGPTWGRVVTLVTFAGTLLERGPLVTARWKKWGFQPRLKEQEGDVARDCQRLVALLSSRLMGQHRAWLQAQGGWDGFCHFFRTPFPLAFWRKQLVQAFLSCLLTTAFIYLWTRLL
Consider `O=C(CN1C(=O)/C(=C/c2ccccc2)SC1=S)Nc1cccc(C(=O)O)c1`, for which the displacement was 13.9%.

In the case of `O=C(N/N=C/c1ccccc1O)C12CC3CCC(CC(C3)C1)C2`, the displacement is -2.8%.

Take `CC1CCCN(CC(O)COc2ccc(Cl)cc2)C1` (stereo not drawn): the displacement stood at 4.8%.

With `Cc1nc2ccccc2n1C(=O)c1ccco1`, the displacement was -3.1%.

`CCc1ccc(NC(=O)CSc2nc3ccc(C)cc3[nH]2)cc1`: the displacement is -2.6%.

As to `COc1ccc(C(=O)Nc2ccc([N+](=O)[O-])cc2Br)cc1`, the displacement is -0.3%.

In the case of `CCOC(=O)Cc1nnc2c(Nc3cccc(Br)c3)nc3nonc3n12`, the displacement was -9.5%.

As to `O=C1C=C(Nc2ccc(O)cc2)CC(c2ccccc2)C1` (stereo not drawn), the displacement was determined as 0.4%.

For `O=C(COc1ccccc1)Nc1nc2ccccc2s1`, the displacement was 3.3%.

`O=C(N/N=C/c1ccc(-c2cccc([N+](=O)[O-])c2)o1)c1cccc([N+](=O)[O-])c1`: the displacement stood at 6.3%.

Take `Cc1ccc2nc(C)c(C(=O)NN=C3CCN(C)CC3)n2c1`: the displacement is -16.3%.

For `C=CCn1c(-c2ccc(OC)cc2)n[nH]c1=S`, the displacement came to 4.7%.

With `CC1CCCN(C(=O)c2sc3cc([N+](=O)[O-])ccc3c2Cl)C1` (stereo not drawn), the displacement is -6.2%.

For the molecule `Cc1ccc(NC(=O)c2ccccc2C(=O)O)c([N+](=O)[O-])c1`, the displacement was found to be 11.5%.

`Cc1ccnc(NC(=O)C(C)Oc2cccc(Cl)c2)c1` (stereo not drawn): the displacement worked out at 8.9%.

`Cc1ccc(NC(=O)c2ccc(C(=O)O)cc2C(=O)O)c(C)c1`: the displacement is 10.8%.

As for `CC(=O)N1C(=O)/C(=C2\SC(=S)N(c3cccc(Br)c3)C2=O)c2ccccc21`, the displacement was determined as 7.1%.

As to `COc1ccc(C2C3=C(CC(C)(C)CC3=O)Nc3[nH]c(=O)[nH]c(=O)c32)cc1` (stereo not drawn), the displacement turned out to be 0.8%.

On to `COc1ccc(CN2CCN(C3CCCC3)CC2)c(OC)c1OC`, for which the displacement was -14.3%.

Turning to `NC1=NC(=O)C(CC(=O)Nc2ccc([N+](=O)[O-])cc2)S1` (stereo not drawn), the displacement was -11.5%.

With `COc1ccc(/C=C(/C#N)C(N)=O)cc1O`, the displacement is 23%.

Turning to `COc1cc(C(=S)N2CCOCC2)cc(OC)c1OC(=O)c1ccc(C)cc1`, the displacement is 14.1%.

`COc1ccc(S(=O)(=O)N2CCCC2)cc1OC`: the displacement was -8.9%.

Regarding `CC(=O)/C(=C/c1ccc(N(C)C)cc1)[N+](=O)[O-]`, the displacement was -1.6%.

Consider `Cc1ccc(N=C(NO)C(=Nc2ccc(C)c(C)c2)NO)cc1C`, for which the displacement is 8.4%.

As for `O=C(O)c1ccc(C(=O)N(C2CCCCC2)C2CCCCC2)cc1`, the displacement turned out to be 7.9%.

Turning to `CCCCCCCCC(=O)N/N=C/c1ccccn1`, the displacement is -1.4%.

Take `C=CCC(Nc1ccccc1)c1ccco1` (stereo not drawn): the displacement was -9.8%.

With `COc1ccc(Cl)cc1NC(=O)C1C2CCC(C2)C1C(=O)O` (stereo not drawn), the displacement is -3.1%.

As to `CCN1C(=O)/C(=C/c2cccc(Cl)c2Cl)SC1=S`, the displacement is -0.2%.

For the molecule `O=C(c1ccc(F)cc1)N1CCN(c2ccc([N+](=O)[O-])cc2Cl)CC1`, the displacement was found to be 8.4%.

Consider `Cc1cccc(OCC(=O)N/N=C/c2ccc(OC(=O)c3cccs3)cc2)c1`, for which the displacement turned out to be 4.2%.

In the case of `O=C(CSc1nnc(CCCN2C(=O)c3cccc4cccc(c34)C2=O)n1-c1ccccc1)NCCCO`, the displacement is 11.2%.

As to `O=C(O/N=C(/c1ccccc1)c1ccncc1)c1ccc(Br)cc1`, the displacement came to 13.6%.

On to `O=C(Nc1ccccc1Cl)c1cccc(NC(=O)C(F)(F)F)c1`, for which the displacement was 4.7%.

On to `COc1ccccc1N/N=C(/C#N)C(=N)N1CCOCC1`, for which the displacement was -5.8%.

Turning to `COc1ccc(C)cc1NC(=O)C(=O)NCc1ccc(C)cc1`, the displacement came out at 12.1%.

Take `Cc1ccc(OCC(=O)Nc2ccc(C)cc2[N+](=O)[O-])c(C)c1`: the displacement stood at 6.1%.

As for `Cc1ccn2c(NC(=O)c3ccco3)c(-c3ccccc3)nc2c1`, the displacement turned out to be 10.8%.

Turning to `COC(=O)c1c(NC(=O)c2ccco2)sc2c1CCC(C)C2` (stereo not drawn), the displacement came out at 0.1%.

As to `COc1ccccc1OCCCN1CCOCC1`, the displacement is -1.3%.

On to `COC(=O)c1c(NC(=O)c2cncc(Br)c2)sc2c1CCC2`, for which the displacement was 16.4%.

As to `O=[N+]([O-])c1ccccc1S(=O)(=O)N1CCN(c2ccccn2)CC1`, the displacement was 0.3%.

For the molecule `Cc1c(Cl)cccc1N=C1NC(=O)/C(=C/c2ccc(OC(C)C)cc2)S1`, the displacement is -28.3%.

On to `Cc1c(CCNC(=O)Nc2ccccc2)c2ccccc2n1Cc1ccccc1`, for which the displacement is 9.1%.

Take `O=C(/C=N/O)NCCN1CCCCC1`: the displacement turned out to be 9.2%.

As to `O=C(CCCOc1ccc(Cl)cc1Cl)Nc1nc(-c2ccc([N+](=O)[O-])cc2)cs1`, the displacement was 0.3%.

In the case of `CC1SC(c2ccc(Cl)cc2Cl)NC1=O` (stereo not drawn), the displacement is -5.4%.

In the case of `CCCOC(=O)c1ccc(NC(=O)c2ccc(OCc3ccccc3)cc2)cc1`, the displacement is -3.3%.

Regarding `Cc1ccc(C(=O)N/C(=C/c2ccccc2Cl)C(=O)NN)cc1`, the displacement is -11.6%.

Regarding `Cc1ccccc1NC(=O)C1CC(=O)N(c2ccc(Br)cc2)C1` (stereo not drawn), the displacement was -3.7%.

On to `CCN(CC)c1ccc(C=Nc2cccc(C(N)=O)c2)c(O)c1`, for which the displacement was -0.3%.

Regarding `COC(=O)c1cc(C)sc1NC(=O)c1sc2cc(Cl)ccc2c1Cl`, the displacement was -2.4%.

Take `O=S(=O)(Nc1nc2ccccc2nc1Nc1cccc(O)c1)c1ccc(Cl)cc1`: the displacement came out at 7.1%.

For `Cc1cc(NC(=O)c2ccccc2[N+](=O)[O-])ccc1-c1cc2ccccc2oc1=O`, the displacement was 0.4%.

As to `Cc1ccc(C(=O)Nc2nc(-c3ccc(F)cc3)cs2)cc1[N+](=O)[O-]`, the displacement came out at 6.9%.

Regarding `CCOC(=O)c1ccccc1NC(=O)CN(c1ccc(OCC)cc1)S(=O)(=O)c1ccc(SC)cc1`, the displacement was -2.2%.

For `Cc1cccc(OCC(=O)Nc2cccc(C(F)(F)F)c2)c1`, the displacement is 4.5%.

`COc1ccc(-c2nc3cc(NC(=S)NC(=O)c4ccco4)ccc3o2)cc1OC`: the displacement is 23%.

For the molecule `COC(=O)C1=C(C)NC(=S)NC1c1cccs1` (stereo not drawn), the displacement stood at 11.8%.

Regarding `O=C1OC(Nc2ncccn2)(c2ccccc2)c2ccccc21` (stereo not drawn), the displacement was -7.3%.

Consider `Cc1cc(Cl)ccc1OCC(=O)N1CCC(C(N)=O)CC1`, for which the displacement is 10.6%.

As for `COc1ccc(O)c(-c2cc(-c3ccc(Br)cc3)n[nH]2)c1`, the displacement was determined as 6.2%.

Regarding `C=CCNC(=O)C(=O)NCc1cccnc1`, the displacement is 7.7%.

Take `CC(=O)C1=C(O)C(=O)N(CC2CCCO2)C1c1ccc2c(c1)OCO2` (stereo not drawn): the displacement is -4.1%.

Take `COc1cc(/C=C2/SC(=S)N(CCC(=O)Nc3nnc(C)s3)C2=O)cc(OC)c1OC`: the displacement came out at 41.4%.

As for `CC(=O)c1ccc2c(c1)c1ccccc1n2C`, the displacement came to 14.3%.

With `NS(=O)(=O)c1ccc(NC(=O)c2c(Cl)cccc2Cl)cc1`, the displacement is -11.3%.

On to `O=C(/C(=N/O)n1cnc([N+](=O)[O-])n1)c1ccccc1`, for which the displacement was found to be 10.4%.

As to `COc1ccc(OC)c(C(=O)c2coc3ccc(O)c(CN(C)C)c23)c1`, the displacement amounted to 14.1%.

On to `O=Nc1c(-c2ccccc2)[nH]n(-c2ccccc2)c1=O`, for which the displacement was found to be 12.4%.

As for `Cc1c(C(=O)Nc2ccc(I)cc2Cl)oc2ccccc12`, the displacement was 10.9%.

Regarding `CC1=C(C(=O)OCCc2ccccc2)C(c2ccsc2)C2=C(CC(C)(C)CC2=O)N1` (stereo not drawn), the displacement is -5.9%.
